About 18,000 (5.8%) of roughly 310,000 compounds were called active. The inconclusive results got no clear call from the source; some entries with a clear call stand among them for comparison. Calls come from the whole dose curve; as a rule, active = well fitted inhibition curve with a large enough effect; inconclusive = small, poorly fitted or top-dose-only effect, or another doubt; inactive = no such curve, though single readings can be large or run the other way. No potency is given beside an inconclusive call; the fits are too rough.
assay: Primary qHTS for delayed death inhibitors of the malarial parasite plastid, 48 hour incubation; conditions: P. falciparum luciferase growth in erythrocytes; series mostly up to 28.7 µM
In short: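 A one-generation exposure of luciferase-tagged malaria parasites in RPMI 1640/Albumax erythrocyte culture, 37 C and 5% CO2. Inhibition is inferred from decreased luminescence after adding detection reagent.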
Potency is the fitted concentration of half-maximal effect; tags give direction and shape of the fitted curve.

Row | Compound | Potency
1 | O=C(CN1CCC(n2cnc3cc(F)ccc32)CC1)Nc1ccccc1Br | inconclusive [inhibitor, single point]
2 | NNC(=S)NCc1ccc2c(c1)OCO2 | inactive
3 | COc1ccc(/C=C/C(=O)OCC(=O)N(C)c2c(N)n(Cc3ccccc3)c(=O)[nH]c2=O)cc1OC | inconclusive [inhibitor, single point]
4 | O=C(O)c1ccc2c(c1)C(=O)N(c1ccc(/C=C/C(=O)c3ccccc3)cc1)C2=O | inconclusive [inhibitor, single point]
5 | Cc1nn(CC(=O)Nc2ccc3c(c2)nc2n3CCN(C3CCCCC3)C2)c(=O)c2ccccc12 | inconclusive [inhibitor, partial curve]
6 | CCOc1cc(/C=C2/N=C(c3ccc4c(c3)OCO4)OC2=O)ccc1OC(C)=O | inactive
7 | COc1ccc(C)cc1NC(=O)NCCC1=CCCCC1 | active: 14.7 µM
8 | O=C(NCc1ccc(Cl)cc1)C1CCC(=O)N(C2CCCCCC2)C1 (centres undefined) | inactive
9 | NC1=NCC2c3ccccc3Cc3ccccc3N12 (centres undefined) | inconclusive [inhibitor, partial curve]
10 | O=C(CCCCCNC(=O)c1ccccc1)N/N=C/c1ccc(O)cc1O | inconclusive [inhibitor, partial curve, poor fit]
11 | O=C(Nc1ccccn1)c1ccc(Cl)s1 | inactive
12 | COc1ccc(-c2csc3nc(C)n(-n4cccc4)c(=O)c23)cc1 | inconclusive [inhibitor, partial curve, poor fit]
13 | CCCCCCn1c(=O)c(Cc2ccccc2)c(O)c2ccccc21 | inconclusive [inhibitor, single point]
14 | CC(C)c1ccc(C(C)NC(=S)NC2CCCCC2)cc1 (centres undefined) | active: 11.7 µM
15 | CCOc1cc2c(cc1OCC)C(c1ccccc1)N(c1ccccc1)C(=O)C2 (centres undefined) | inconclusive [inhibitor, single point]
16 | O=C(NCc1ccccc1)C(=O)c1cn(CC(=O)N2CCOCC2)c2ccccc12 | inactive
17 | CCN(CC(O)CON=C1c2ccccc2-c2ccccc21)S(=O)(=O)c1ccc(Cl)cc1 (centres undefined) | inconclusive [inhibitor, partial curve, poor fit]
18 | c1ccc(-c2noc(-c3ccccc3-c3ccccc3)n2)cc1 | inactive
19 | Cc1ccc(CN2CCSc3ccc(C(=O)NCc4ccccn4)cc32)cc1 | inconclusive [inhibitor, partial curve]
20 | Cc1cc(C)nc(SCCn2c(N(C)Cc3ccccc3)nc3c2c(=O)n(C)c(=O)n3C)n1 | active: 7.38 µM
21 | Cc1cc(-c2nn(C)c(=O)c3ccccc23)ccc1CNC(=O)NC1CCCCC1 | inconclusive [inhibitor, single point]
22 | CCOC(=O)c1c(-c2ccccc2)oc2ccc(O)c(CN3CCOCC3)c12 | inconclusive [inhibitor, partial curve]

Row | Compound | Potency
23 | N#CC1=C(N)C(C#N)(C#N)C(c2cccnc2)C2CN(C(=O)OCc3ccccc3)CC=C12 (centres undefined) | inconclusive [inhibitor, single point]
24 | O=C(CCNC(=O)OCc1ccccc1)NC1CCCCCC1 | inconclusive [inhibitor, single point]
25 | O=C(O)c1ccccc1N/N=C\c1ccnc2ccccc12 | inactive
26 | CCCCN(CCCNC(=O)c1ccc(CS(=O)(=O)c2c(Cl)cccc2Cl)o1)Cc1ccccc1 | inconclusive [inhibitor, single point]
27 | Cc1ccc(Cn2c(SCC(=O)N/N=C/c3ccc(C)o3)nc3ccccc32)cc1 | inconclusive [inhibitor, single point]
28 | CC(C)Oc1ccc(C(=O)Nc2ccc3c(c2)n(C)c(=O)n3C)cc1 | inactive
29 | Cc1ccc(-c2nc(N)sc2CC(=O)OCC(=O)NCCC(C)C)cc1 | inactive
30 | CCOC(=O)c1nnn(-c2nn3nnnc3c3ccccc23)c1C | active: 0.928 µM
31 | COC(=O)c1ccc(C(C(=O)NC2CCCCC2)N(C(=O)Cc2cccs2)C2CC2)cc1 (centres undefined) | inconclusive [inhibitor, partial curve, poor fit]
32 | O=C(Nc1ccc(Cl)cc1)Nc1nc(-c2sccc2Br)cs1 | active: 8.28 µM
33 | COc1ccc(S(=O)(=O)N2CCCCCC2)cc1C(=O)OCc1cccc(OC)c1OC | inconclusive [inhibitor, single point]
34 | Cc1ccccc1C(=O)Nc1ccc(S(=O)(=O)Nc2onc(C)c2C)cc1 | inactive
35 | OCCNc1ncnc2c1sc1nc(N3CCOCC3)c3c(c12)CCC3 | inconclusive [inhibitor, single point]
36 | O=C(CCC1CCCC1)NCCCNC(=O)CCC1CCCC1 | inconclusive [inhibitor, partial curve, poor fit]
37 | CC1CN(Cc2cc(=O)[nH]c(C3CC3)n2)CC(C)O1 (centres undefined) | inconclusive [inhibitor, partial curve]
38 | O=C1CCCN2N=C(SCC(=O)Nc3cccc(Cl)c3)SC2=N1 | inconclusive [inhibitor, single point]
39 | CC(Sc1nc2cc([N+](=O)[O-])ccc2n1-c1cccc(C(F)(F)F)c1)C(=O)NC(N)=O (centres undefined) | active: 0.586 µM
40 | O=C(COC(=O)COc1ccccc1[N+](=O)[O-])NC1CCCCC1 | inactive
41 | Cc1ccc(S(=O)(=O)N2CCN(C(=O)c3ccccc3OCc3c(C)noc3C)CC2)cc1C | inconclusive [inhibitor, single point]
42 | CCCN(CC(=O)Nc1ccccc1OC)C(=O)c1ccc2ncsc2c1 | inconclusive [inhibitor, single point]
43 | CCN(CC(=O)NCc1cccs1)C(=O)/C=C/c1cc(Br)ccc1OC(F)F | inconclusive [inhibitor, single point]
44 | Cn1cc(S(=O)(=O)N2CCCC2)cc1C(=O)N1CCN(c2cccc(Cl)c2)CC1 | inconclusive [inhibitor, single point]

— PubChem BioAssay AID504832 (National Center for Advancing Translational Sciences (NCATS), 2011)
